# Results from PubChem BioAssay AID1851 (National Center for Advancing Translational Sciences (NCATS), 2009).
# The list shows a part of the results, in another mix than the full data. Records with an inconclusive call do not appear. Active and inactive are the calls of the source. Calls follow the shape of the dose curve; as a rule, active = well fitted curve in the direction sought with a large enough effect; inconclusive = small, poorly fitted or top-dose-only effect, or effect the other way; inactive = no such curve, though single readings can be large or run the other way.
# Target: Cytochrome P450 2C19 (Homo sapiens) (UniProt P33261)
# Assay: Cytochrome panel assay with activity outcomes
# Conditions: recombinant CYP, pro-luciferin dealkylation, luminescence, p450-cyp2c19; series mostly up to 57.1 µM
# Sequence of UniProt P33261 (P33261 whole entry, looked up): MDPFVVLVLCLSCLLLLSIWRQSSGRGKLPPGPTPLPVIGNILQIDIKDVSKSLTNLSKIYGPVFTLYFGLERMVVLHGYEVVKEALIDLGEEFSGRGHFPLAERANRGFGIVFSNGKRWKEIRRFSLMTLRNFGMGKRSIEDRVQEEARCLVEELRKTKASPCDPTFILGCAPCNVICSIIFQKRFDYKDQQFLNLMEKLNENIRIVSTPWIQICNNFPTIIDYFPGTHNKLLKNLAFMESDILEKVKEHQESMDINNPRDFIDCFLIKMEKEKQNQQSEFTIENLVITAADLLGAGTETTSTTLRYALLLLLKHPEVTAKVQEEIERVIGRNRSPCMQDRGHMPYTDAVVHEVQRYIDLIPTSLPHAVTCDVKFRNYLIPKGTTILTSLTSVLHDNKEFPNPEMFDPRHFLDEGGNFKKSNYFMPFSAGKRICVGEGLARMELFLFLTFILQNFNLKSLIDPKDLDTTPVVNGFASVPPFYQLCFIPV
row,Structure (SMILES),AC50
1,CN1[C@@H]2CC[C@H]1CC(OC(=O)[C@@H](O)c1ccccc1)C2 (some centres not stated),inactive
2,Clc1ccc(CS[C@@H](Cn2ccnc2)c2ccc(Cl)cc2Cl)cc1,active: 10 nM
